Results published in paper PMC12136788.
The list shows a part of the results.

T1: UNK ZnF1-3 (human, UniProt Q9C0B0 31-174)
T1 sequence: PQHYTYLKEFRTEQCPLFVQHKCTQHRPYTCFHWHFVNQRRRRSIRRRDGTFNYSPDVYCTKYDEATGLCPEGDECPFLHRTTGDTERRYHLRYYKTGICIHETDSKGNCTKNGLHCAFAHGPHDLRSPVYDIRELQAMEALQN

B1: chr13:110847046:110847047:-_ENSMUSG00000021700_ENSMUST00000167824|mus_mus|FALSE|FALSE (ssRNA)
RNA: GGGAGUUCUACAGUCCGACGAUCUGAGCCACAAAUGACAGGAACAUAGUGACAUUUCCACUACACACACACACACACACACACACACACACACACACACACACAAGCCACAGCAACUCUCAGUUGUCCACAAGGAAGCAAAAACAACAGAGGAUUGAGCAUCA
B2: 33497434_33497554_2936_3pUTR_ENSMUSG00000022811_ENSMUST00000165418|mouse|control|control (ssRNA)
RNA: GGGAGUUCUACAGUCCGACGAUCUUCUUAUCAGCUUGCUAUGAACGCACUGCUCUUAGAACUGUACAGCACUCCAUUUUACAGAGCAACCCCACUCUUGAGUAAUCUGUUCUAAAGUGCCAGUAUUAUUUACACAUUUUUUUUCAACAGAGGAUUGAGCAUCA
B3: 70925867_70925987_1684_CDS_ENSMUSG00000019558_ENSMUST00000114465|mouse|control|control (ssRNA)
RNA: GGGAGUUCUACAGUCCGACGAUCGAGACAGCCCAGGAGGUGGAGGGGUACACAUAGCAUAGAAGAGAGUGCAAAGGCCCAGCCCAUAGCUUCACCCCACCAUGGGUACACGUAGGUGUUGUUGUAGACCAGUGGCUCGUAGUACAACAGAGGAUUGAGCAUCA
B4: 126983161_126983534_11633_CDS_ENSMUSG00000040249_ENSMUST00000049149|mouse|control|control (ssRNA)
RNA: GGGAGUUCUACAGUCCGACGAUCGUCUUUGCAGUGGGGGUUCUGGGCCGUGGGGGGCUCACAGUCCUCCUCGUCAGUCCCAUCUCCACAGUUGUCCACGCCAUCACACUGGCGCCCAAUCCACAGGCAGACUCGGUCAUUCUUCAACAGAGGAUUGAGCAUCA
B5: 100153759_100153879_149_5pUTR_ENSG00000125304_ENST00000376387|human|control|control (ssRNA)
RNA: GGGAGUUCUACAGUCCGACGAUCCCGGCAGCCUCGCGCUCAUGAUAGUUGUUUCGGGGAAAGGGCAAUCAAACCUAGGGGGUCAAGAGGGAAGGAGGGGUGGGGAGUCUCGGAGACGACUACAAGGCCGCCAGAGAUAAAGGACAACAGAGGAUUGAGCAUCA
B6: chrX:140292434:140292435:-_ENSMUSG00000031285_ENSMUST00000033642|mus_mus|FALSE|FALSE (ssRNA)
RNA: GGGAGUUCUACAGUCCGACGAUCAAAGACCUAAACAUUCAUGAGCUGUAAGGACAGUGCUUGAAAAGAUCUACUGAGACUAAAACAGGAAAAAAAAAAAGAAAGGGUCAGAAUCAGGUUGUUUUCUACCAACCUACUUGUGACCAACAGAGGAUUGAGCAUCA
B7: chr3:148522152:148522153:-_ENSMUSG00000028184_ENSMUST00000106128|mus_mus|motif|central (ssRNA)
RNA: GGGAGUUCUACAGUCCGACGAUCGGGUGACGUAUCGUGGUAGUUGGCAUAGUUGAUGAUAGCCUCGCCGCUCUUGAUUCGGGUCCUCAAGUCAAACUUAACAAUGUUUCUGGUUCUUUCCUUGUUAAAGAAGACGGCUCCAUCCAACAGAGGAUUGAGCAUCA
B8: chr3:57561359:57561360:-_ENSG00000168374_ENST00000303436|hu_mus|FALSE|FALSE (ssRNA)
RNA: GGGAGUUCUACAGUCCGACGAUCCUUGUCUGUCAUCUCACUGAUGGCCAUAGCGUUUGGCAGAUCCUGUUUGUUUGCAAAAAGGAGCAGCACUGCAUCCUGCAGCUCAUCUUCCAGAAGCAUUUUCUGCAGCACAGCUGCUCCCAACAGAGGAUUGAGCAUCA
B9: chr6:13820011:13820012:-_ENSMUSG00000052419_ENSMUST00000155856|mus_hu|FALSE|FALSE (ssRNA)
RNA: GGGAGUUCUACAGUCCGACGAUCUAAAUGUUUUUUCCCUAGAGAUAAAAGUUUUCCUUUUUGCCUGACUCUCUGAUAUCUAAAUAUAAUAUUAACUUGGGAGACAACAAAACAAAAAUCUAAUUUAAAAGACUCCUCAACGAUCAACAGAGGAUUGAGCAUCA
B10: chr7:65705475:65705476:+_ENSG00000169902_ENST00000304842|hu_hu|hu_hu_hu_mus_True|68_108 (ssRNA)
RNA: GGGAGUUCUACAGUCCGACGAUCUCUAUCCGGUGAUGGCACUCCAUGGCAUGCUGGCCCAGGUAAAACACAGUCACAGAACUAAUCACCAGACACGCCAAGAGUAAGUUCUGCUUCAGCUUCCCAACCAUCUUGAUGUGGUUACAACAGAGGAUUGAGCAUCA
B11: 22790091_22790211_509_ncRNA_ENSMUSG00000026784_ENSMUST00000139472|mouse|control|control (ssRNA)
RNA: GGGAGUUCUACAGUCCGACGAUCAUGACUGGAGUUUGAUGAAGAAAGAACUGACUACUCAGACACCUGUCUCCCCACCGUGUGUGACACACACUAUAAGUCCCUCAGUAAUGAUGACAAUGUCUUGUAUCCUCUUCAUUUUUACAACAGAGGAUUGAGCAUCA
B12: chr2:84898283:84898284:+_ENSMUSG00000033955_ENSMUST00000148682|mus_hu|FALSE|FALSE (ssRNA)
RNA: GGGAGUUCUACAGUCCGACGAUCUGAGGGAAUCCAGGGCUUGGAAAUAUCAGCAGGUAGCUCCGAGCUGGCUGCCUUAGCCAGGUCCCCGUUGAAGGCCAGGUCGGAAGGAAGGCUCCUCUCCUCAGGGGUCUUGCUGUGCUCCAACAGAGGAUUGAGCAUCA
B13: 31085571_31085691_2166_3pUTR_ENSG00000092140_ENST00000206595|human|control|control (ssRNA)
RNA: GGGAGUUCUACAGUCCGACGAUCUUUCUUAUGGUGAAGUCCAUAUUUUCUUGAAACUCUUUAUAUGUAUUGGUGAUGGGAAUUGCUAAACAGUUAUUACACUUGUUUCCAACAGGAAAAUCCACAUGCAGACACUCAAUUGAACAACAGAGGAUUGAGCAUCA
B14: chr7:7612872:7612873:+_ENSG00000164654_ENST00000405785|hu_hu|FALSE|FALSE (ssRNA)
RNA: GGGAGUUCUACAGUCCGACGAUCUUUUGUUAAGGGUUUUGGUUGCUCAGUCAAUGUCAAAACUGGCUUCUCAAAUUUUCUAAGAUCCCAUAUUGCAACCUGACCUUCAUAGAAGGAAGCAACACGAUCGUGGAAAUAUGGGUCCAACAGAGGAUUGAGCAUCA

biological target: T1, UNK ZnF1-3; assay: nsRBNS (natural sequence RNA bind-n-seq); RBNS binding buffer (assumed for nsRBNS): 25 mM Tris pH 7.5, 150 mM KCl, 3 mM MgCl2, 0.01% Triton X-100, 500 ug/ml BSA, 20 U/ml SUPERase-In, 4 C; UNK is unkempt and MSI1 is Musashi-1; names of the RNAs are library labels; protein concentration not given here; high values mean tight binding

Row | Binder | binding signal [enrichment R]
1 | B1 | 1.52
2 | B2 | 0.536
3 | B3 | 1.49
4 | B4 | 1.02
5 | B5 | 2.22
6 | B6 | 1.52
7 | B7 | 0.4
8 | B8 | 0.391
9 | B9 | 1.64
10 | B10 | 0.564
11 | B11 | 0.985
12 | B12 | 0.718
13 | B13 | 0.725
14 | B14 | 1.04
